# PubChem BioAssay (Tox21)
# Several values for one entry are separate records, joined by “and”; a condition that tells them apart may be missing. Equal entries are not always repeated. The shares of active, inactive and inconclusive entries below differ from those in the screen. For some of these results: A potency beside an inconclusive call is a rough fit, not a confirmed value. Activity calls are given as the source filed them. Unless noted, calls follow the shape of the dose curve; as a rule, active = well fitted curve in the direction sought with a large enough effect in the repeat runs; inconclusive = weak or mixed curves; inactive = no such curve, though single readings can be large; an effect the other way counts as inactive or inconclusive.
# Legend:
# [1] = qHTS assay for small molecule agonists of the p53 signaling pathway (AID 651631; calls by dose curve; also: nearly all actives have a fitted effect of over 15% in size; also: potency is read from the fitted curve at half-maximal effect; as to activation: % is scaled to controls: 0 for no effect and ±100 for the full control effect); conditions: HCT-116 p53RE-bla reporter, beta-lactamase FRET ratio, 16 h; activation: at 73.3 µM (top of the series) unless noted
# Method in brief: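 HCT-116 p53RE-bla reporter line, 16 h compound treatment at 37 °C, then fluorescence after 2 h with B/G FRET substrate.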
# [2] = qHTS assay for small molecule disruptors of the mitochondrial membrane potential (AID 720635); conditions: HepG2 mitochondrial membrane potential, Mito-MPS dye ratio; also: potency is read from the fitted curve at half-maximal effect; as to ratio activity, negative = MMP loss: % is scaled to controls: 0 for no effect and ±100 for the full control effect
# Method in brief: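 Mitochondrial membrane potential tracked with Mito-MPS dye, red aggregates (ex 540/em 590 nm) against green monomers (ex 490/em 535 nm). Compound treatment 1 hr at 37C, dye 30 min in HepG2.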
# [3] = biological target: Glucocorticoid receptor (Homo sapiens) (UniProt P04150); assay: qHTS assay to identify small molecule antagonists of the glucocorticoid receptor (GR) signaling pathway (AID 720692; active = well fitted inhibition curve with a large enough effect in the signal ratio in the repeat runs, not every such curve was filed as active; inconclusive = weak or mixed curves, or effect the other way; inactive = no such curve, though single readings can be large or run the other way; the % refers to the signal ratio; also: % is scaled to controls: 0 for no effect and ±100 for the full control effect); conditions: GR-bla HeLa, beta-lactamase FRET ratio, dexamethasone-stimulated, 18 h; activity change, negative = inhibition: at 58.5 µM (top of the series) unless noted
# Method in brief: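 GRE-bla HeLa line, dex-stimulated (5 nM final). Compound exposure 18 h, 37 C. Beta-lactamase FRET read after 2 h RT substrate.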
# [4] = qHTS assay for identifying genotoxic compounds that show differential cytotoxicity against isogenic chicken DT40 cell lines with known DNA damage response pathways - Rev3 mutant cell line (AID 743014); conditions: chicken DT40 Rev3-/- viability, CellTiter-Glo, 40 h; activity, negative = cytotoxicity: at 68.4 µM (top of the series) unless noted; also: potency is read from the fitted curve at half-maximal effect; nearly all actives have a fitted effect of over 55% in size
# [5] = qHTS assay to identify small molecule agonists of H2AX - cell viability counter screen (AID 1224847; calls by dose curve; also: nearly all actives have a fitted effect of over 30% in size; also: potency is read from the fitted curve at half-maximal effect)
# Method in brief: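 We seed wild-type CHO-K1 cells overnight, treat them for 3 hr at 37C with compounds in 15-concentration series, and quantify remaining viability by CellTiter-Glo luminescence.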
# [6] = biological target: Progesterone receptor (Homo sapiens) (UniProt P06401); assay: qHTS assay to identify small molecule antagonists of the progesterone receptor (PR) signaling pathway (AID 1346795; active = well fitted inhibition curve with a large enough effect in the signal ratio in the repeat runs, not every such curve was filed as active; inconclusive = weak or mixed curves; the % refers to the signal ratio; also: potency is read from the fitted curve at half-maximal effect); conditions: PR-UAS-bla HEK293T, beta-lactamase FRET ratio, 16 h; activity change, negative = inhibition: at 92.4 µM (top of the series) unless noted
# Method in brief: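 HEK293T PR-UAS-bla reporter cells in charcoal-stripped serum (2%) received compound after a 6 hr settling period, followed by R5020 agonist at 1 nM final; 16 hr incubation preceded the FRET substrate step and fluorescence measurement.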
# [7] = biological target: Cytochrome P450 2C9 (Homo sapiens) (UniProt P11712); assay: Cytochrome P450 Family 2 Subfamily C Member 9 (CYP2C9) small molecule antagonists: luciferase reporter qHTS assay (AID 1671198); also: potency is read from the fitted curve at half-maximal effect; nearly all actives have a fitted effect of over 50% in size
# Method in brief: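 Enzyme-substrate mix preincubated with compound 10 min at room temperature; reaction started with NADPH regeneration solution, 1 h 37C. Luminescent luciferin product read after 20 min detection reagent.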
# [8] = biological target: Cytochrome P450 1A2 (Homo sapiens) (UniProt P05177); assay: Cytochrome P450 Family 1 Subfamily A Member 2 (CYP1A2) small molecule antagonists: luciferase reporter qHTS assay (AID 1671199); also: nearly all actives have a fitted effect of over 50% in size; also: potency is read from the fitted curve at half-maximal effect
# Method in brief: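 Quantitative high-throughput format using the P450-Glo CYP1A2 system. Reaction initiated by NADPH regeneration solution, 1 h at room temperature, then stopped with detection reagent; luminescence measured 20 min later.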
# [9] = biological target: Peroxisome proliferator-activated receptor gamma (Homo sapiens) (UniProt P37231); assay: qHTS assay to identify small molecule antagonists of the peroxisome proliferator-activated receptor gamma (PPARg) signaling pathway (AID 743191; calls by dose curve; also: % is scaled to controls: 0 for no effect and ±100 for the full control effect; nearly all actives have a fitted effect of over 30% in size); conditions: HEK293H PPARg-UAS-bla, beta-lactamase ratio, antagonist, 17 h; ratio activity, negative = inhibition: at 62.6 µM (top of the series) unless noted
# Method in brief: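 Beta-lactamase reporter under UAS control in HEK293H PPARg-bla cells; compound treatment 17 h at 37C. Read-out: fluorescence intensity after 1 h room-temperature incubation with LiveBLAzer B/G FRET substrate.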
# [10] = qHTS assay to identify small molecule antagonists of the peroxisome proliferator-activated receptor delta (PPARd) signaling pathway - cell viability counter screen (AID 743213); conditions: PPARd-bla HEK293H viability, CellTiter-Glo luminescence, 17 h; viability change, negative = cytotoxic: at 62 µM (top of the series) unless noted; also: nearly all actives have a fitted effect of over 50% in size; also: potency is read from the fitted curve at half-maximal effect
# Method in brief: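 Same-well viability: cells pre-incubated 5 h, dosed with compound plus 300 nM L165041, kept 17 h at 37 C, FRET substrate 2 h RT, then CellTiter-Glo 30 min RT and luminescence.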
# [11] = biological target: Cytochrome P450 2D6 (Homo sapiens) (UniProt P10635); assay: Cytochrome P450 Family 2 Subfamily D Member 6 (CYP2D6) small molecule antagonists: luciferase reporter qHTS assay (AID 1671196); also: nearly all actives have a fitted effect of over 50% in size; also: potency is read from the fitted curve at half-maximal effect
# Method in brief: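 Quantitative HTS of Tox21 chemicals against CYP2D6 using a luminescent proluciferin substrate. After NADPH addition, 1 h room-temperature reaction; luminescence recorded 20 min post detection reagent.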
# [12] = biological target: Cytochrome P450 2C19 (Homo sapiens) (UniProt P33261); assay: Cytochrome P450 Family 2 Subfamily C Member 19 (CYP2C19) small molecule antagonists: luciferase reporter qHTS assay (AID 1671197); also: nearly all actives have a fitted effect of over 65% in size; also: potency is read from the fitted curve at half-maximal effect
# Method in brief: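 Compounds were tested on CYP2C19 activity via proluciferin conversion to luciferin. The 37C, 1 h reaction followed NADPH addition; detection reagent stopped it.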
# [13] = qHTS assay to identify small molecule agonists of the estrogen receptor beta (ER-beta) signaling pathway - cell viability counter screen (AID 1259380); also: nearly all actives have a fitted effect of over 30% in size; also: potency is read from the fitted curve at half-maximal effect
# Method in brief: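 In this qHTS counter screen, HEK293T cells carrying an ER-beta/UAS beta-lactamase reporter, grown in 2% charcoal-stripped FBS, received compound for 16 hr; ATP-based CellTiter-Glo luminescence was then read after 30 min at room temperature.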
# [14] = qHTS assay to identify small molecule agonists of the progesterone receptor (PR) signaling pathway - cell viability counter screen (AID 1346799; calls by dose curve; also: nearly all actives have a fitted effect of over 45% in size; also: potency is read from the fitted curve at half-maximal effect)
# Method in brief: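 Counter screen for cytotoxicity: compound-treated PR-UAS-bla HEK293T cells (16 hr, 37C, 5% CO2) were assayed with CellTiter-Glo, luminescence measured after 30 min at room temperature.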
# [15] = qHTS assay for identifying genotoxic compounds that show differential cytotoxicity against isogenic chicken DT40 cell lines with known DNA damage response pathways - wild type cell line (AID 743012); conditions: DT40 wild type chicken cells viability, CellTiter-Glo, 40 h; activity change, negative = cytotoxicity: at 68.4 µM (top of the series) unless noted; also: % is scaled to controls: 0 for no effect and ±100 for the full control effect; nearly all actives have a fitted effect of over 60% in size
# Method in brief: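 300 wt DT40 cells/well; cpd (DMSO) pintool-transferred after ~0.5 h at 37 C/5% CO2; 40 h incubation; CellTiter-Glo added, 30 min RT; luminescence read.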
# [16] = qHTS assay for small molecule agonists of the antioxidant response element (ARE) signaling pathway (AID 743202; active = well fitted activation curve with a large enough effect in the signal ratio in the repeat runs, not every such curve was filed as active; inconclusive = weak or mixed curves, or effect the other way; inactive = no such curve, though single readings can be large or run the other way; the % refers to the signal ratio; also: potency is read from the fitted curve at half-maximal effect); conditions: HepG2 ARE-bla reporter, beta-lactamase FRET, 16 h; activation: at 73.3 µM (top of the series) unless noted
# Method in brief: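 After 16 hours of compound treatment at 37 C, HepG2 cells with a stably integrated ARE-driven beta-lactamase reporter were loaded 2 hours at room temperature with LiveBLAzer B/G FRET substrate and fluorescence intensity measured.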
# [17] = biological target: Vitamin D3 receptor (Homo sapiens) (UniProt P11473); assay: qHTS assay to identify small molecule antagonists of the vitamin D receptor (VDR) signaling pathway (AID 743223; active = well fitted inhibition curve with a large enough effect in the signal ratio in the repeat runs, not every such curve was filed as active; inconclusive = weak or mixed curves, or effect the other way; inactive = no such curve, though single readings can be large or run the other way; the % refers to the signal ratio; also: % is scaled to controls: 0 for no effect and ±100 for the full control effect); conditions: VDR-UAS-bla HEK293T, beta-lactamase FRET ratio, 16 h; activity change, negative = inhibition: at 61 µM (top of the series) unless noted
# Method in brief: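 Fluorescence from LiveBLAzer B/G FRET substrate, read after 2 h at room temperature, reflects beta-lactamase reporter activity in VDR-bla cells treated 16 h at 37C with compounds and agonist 1alpha,25-dihydroxyvitamin D3 (3 nM final).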
# [18] = biological target: Estrogen receptor beta (Homo sapiens) (UniProt Q92731); assay: qHTS assay to identify small molecule antagonists of the estrogen receptor beta (ER-beta) signaling pathway (AID 1259378; active = well fitted inhibition curve with a large enough effect in the signal ratio in the repeat runs, not every such curve was filed as active; inconclusive = weak or mixed curves, or effect the other way; inactive = no such curve, though single readings can be large or run the other way; the % refers to the signal ratio; also: potency is read from the fitted curve at half-maximal effect); conditions: ER-beta-UAS-bla HEK293T, beta-lactamase FRET ratio, 16 h; activity, negative = inhibition: at 92.4 µM (top of the series) unless noted
# Method in brief: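 Antagonist mode: compounds added to beta-lactamase reporter HEK293T ER-beta-UAS cells stimulated with E2 (1nM final), 16 hr at 37C. LiveBLAzer B/G FRET substrate, 2 hours room temperature, fluorescence read-out.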
# [19] = qHTS assay to identify small molecule antagonists of the sonic hedgehog signaling (Shh) pathway (AID 1259369; calls by dose curve; also: % is scaled to controls: 0 for no effect and ±100 for the full control effect; nearly all actives have a fitted effect of over 45% in size)
# Method in brief: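 Gli1 transcriptional reporter (firefly Luc) in NIH/3T3 background, conditioned-medium activated. 24hr exposure, luminescence endpoint.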
# [20] = ratio activity, negative = MMP loss: at 83.2 µM (top of the series) unless noted
# Tags tell the direction and shape of the fitted curve or compound fluorescence and quenching.
# Chain of UniProt P06401 (P06401 whole entry, looked up): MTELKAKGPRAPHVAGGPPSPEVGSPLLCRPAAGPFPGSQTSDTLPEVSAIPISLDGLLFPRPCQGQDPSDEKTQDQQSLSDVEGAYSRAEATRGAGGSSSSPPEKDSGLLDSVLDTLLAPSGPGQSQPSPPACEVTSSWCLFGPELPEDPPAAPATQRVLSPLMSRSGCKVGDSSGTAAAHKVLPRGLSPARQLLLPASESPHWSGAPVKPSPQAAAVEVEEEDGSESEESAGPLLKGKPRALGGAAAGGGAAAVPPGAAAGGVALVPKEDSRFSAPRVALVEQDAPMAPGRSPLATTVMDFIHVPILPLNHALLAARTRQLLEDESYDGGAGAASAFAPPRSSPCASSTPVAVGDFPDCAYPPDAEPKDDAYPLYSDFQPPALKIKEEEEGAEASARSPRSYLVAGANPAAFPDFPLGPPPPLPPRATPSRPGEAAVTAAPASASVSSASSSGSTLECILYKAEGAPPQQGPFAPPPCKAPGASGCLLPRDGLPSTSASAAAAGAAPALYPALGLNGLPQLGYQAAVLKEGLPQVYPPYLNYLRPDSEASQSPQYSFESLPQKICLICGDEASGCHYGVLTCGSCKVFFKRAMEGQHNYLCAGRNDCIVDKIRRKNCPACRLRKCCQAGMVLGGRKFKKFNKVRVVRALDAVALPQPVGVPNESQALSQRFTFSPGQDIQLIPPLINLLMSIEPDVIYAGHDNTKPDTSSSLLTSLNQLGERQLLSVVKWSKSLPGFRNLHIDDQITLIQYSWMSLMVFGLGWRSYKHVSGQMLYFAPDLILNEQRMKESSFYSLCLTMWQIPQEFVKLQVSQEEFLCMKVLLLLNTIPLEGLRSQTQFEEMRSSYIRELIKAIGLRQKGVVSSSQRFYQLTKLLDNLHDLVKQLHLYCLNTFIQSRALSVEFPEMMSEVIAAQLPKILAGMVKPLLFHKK
# Chain of UniProt Q92731 (Q92731 whole entry, looked up): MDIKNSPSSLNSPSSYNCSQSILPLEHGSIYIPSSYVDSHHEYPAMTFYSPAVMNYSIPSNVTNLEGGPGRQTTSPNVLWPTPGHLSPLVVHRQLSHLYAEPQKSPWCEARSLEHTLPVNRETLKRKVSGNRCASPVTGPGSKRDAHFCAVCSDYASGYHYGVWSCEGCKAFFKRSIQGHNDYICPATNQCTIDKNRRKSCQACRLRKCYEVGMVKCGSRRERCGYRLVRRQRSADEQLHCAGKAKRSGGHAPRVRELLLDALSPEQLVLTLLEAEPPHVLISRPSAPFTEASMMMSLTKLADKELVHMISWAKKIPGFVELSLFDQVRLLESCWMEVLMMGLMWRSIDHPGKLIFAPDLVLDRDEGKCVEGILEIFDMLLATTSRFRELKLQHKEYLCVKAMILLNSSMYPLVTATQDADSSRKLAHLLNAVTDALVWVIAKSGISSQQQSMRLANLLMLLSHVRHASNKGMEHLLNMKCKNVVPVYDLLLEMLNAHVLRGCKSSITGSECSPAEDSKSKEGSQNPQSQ
# Chain of UniProt P11712 (P11712 whole entry, looked up): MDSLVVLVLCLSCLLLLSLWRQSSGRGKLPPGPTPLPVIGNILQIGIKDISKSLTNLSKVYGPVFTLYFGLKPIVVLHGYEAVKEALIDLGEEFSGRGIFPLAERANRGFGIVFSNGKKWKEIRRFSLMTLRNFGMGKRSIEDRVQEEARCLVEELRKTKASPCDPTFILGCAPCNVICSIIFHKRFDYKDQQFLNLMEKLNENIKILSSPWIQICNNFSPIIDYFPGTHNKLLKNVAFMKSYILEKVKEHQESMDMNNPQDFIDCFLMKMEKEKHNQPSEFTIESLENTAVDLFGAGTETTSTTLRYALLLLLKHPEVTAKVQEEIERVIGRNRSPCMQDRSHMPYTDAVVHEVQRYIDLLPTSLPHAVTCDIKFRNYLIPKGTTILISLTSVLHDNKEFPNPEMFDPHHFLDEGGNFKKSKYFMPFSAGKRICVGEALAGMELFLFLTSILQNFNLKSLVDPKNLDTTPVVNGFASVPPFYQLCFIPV
# Chain of UniProt P04150 (P04150 whole entry, looked up): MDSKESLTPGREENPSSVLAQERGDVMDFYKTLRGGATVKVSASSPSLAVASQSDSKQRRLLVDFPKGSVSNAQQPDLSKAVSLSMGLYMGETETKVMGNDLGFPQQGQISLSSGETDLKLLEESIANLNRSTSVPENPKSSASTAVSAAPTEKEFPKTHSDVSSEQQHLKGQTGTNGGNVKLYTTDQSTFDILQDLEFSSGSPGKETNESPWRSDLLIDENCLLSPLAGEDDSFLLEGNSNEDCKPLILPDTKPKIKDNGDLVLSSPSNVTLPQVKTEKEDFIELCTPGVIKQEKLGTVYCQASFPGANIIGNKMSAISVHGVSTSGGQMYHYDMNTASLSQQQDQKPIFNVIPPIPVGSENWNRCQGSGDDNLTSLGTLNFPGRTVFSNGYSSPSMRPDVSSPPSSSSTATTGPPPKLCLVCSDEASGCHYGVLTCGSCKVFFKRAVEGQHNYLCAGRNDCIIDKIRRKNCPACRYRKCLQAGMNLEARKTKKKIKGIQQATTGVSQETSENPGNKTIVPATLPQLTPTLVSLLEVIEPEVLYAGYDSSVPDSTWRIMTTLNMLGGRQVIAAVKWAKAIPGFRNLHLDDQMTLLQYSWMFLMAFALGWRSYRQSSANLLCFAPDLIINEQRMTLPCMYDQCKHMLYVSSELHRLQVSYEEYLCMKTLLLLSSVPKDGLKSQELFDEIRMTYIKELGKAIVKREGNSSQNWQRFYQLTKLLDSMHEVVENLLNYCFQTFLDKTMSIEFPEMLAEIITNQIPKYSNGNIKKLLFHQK
# Chain of UniProt P33261 (P33261 whole entry, looked up): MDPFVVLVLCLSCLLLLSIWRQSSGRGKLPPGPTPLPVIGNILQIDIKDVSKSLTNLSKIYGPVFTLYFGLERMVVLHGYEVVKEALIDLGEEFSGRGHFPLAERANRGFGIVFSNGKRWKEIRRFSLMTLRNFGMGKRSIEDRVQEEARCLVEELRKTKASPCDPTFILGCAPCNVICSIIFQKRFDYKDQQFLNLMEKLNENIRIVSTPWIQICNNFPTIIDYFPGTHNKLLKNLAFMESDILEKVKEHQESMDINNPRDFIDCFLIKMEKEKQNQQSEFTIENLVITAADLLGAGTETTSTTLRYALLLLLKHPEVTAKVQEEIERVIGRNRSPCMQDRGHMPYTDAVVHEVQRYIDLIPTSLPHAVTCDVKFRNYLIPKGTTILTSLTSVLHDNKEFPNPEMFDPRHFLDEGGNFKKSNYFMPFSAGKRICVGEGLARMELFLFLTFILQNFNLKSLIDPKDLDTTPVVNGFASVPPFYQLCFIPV
# Chain of UniProt P05177 (P05177 whole entry, looked up): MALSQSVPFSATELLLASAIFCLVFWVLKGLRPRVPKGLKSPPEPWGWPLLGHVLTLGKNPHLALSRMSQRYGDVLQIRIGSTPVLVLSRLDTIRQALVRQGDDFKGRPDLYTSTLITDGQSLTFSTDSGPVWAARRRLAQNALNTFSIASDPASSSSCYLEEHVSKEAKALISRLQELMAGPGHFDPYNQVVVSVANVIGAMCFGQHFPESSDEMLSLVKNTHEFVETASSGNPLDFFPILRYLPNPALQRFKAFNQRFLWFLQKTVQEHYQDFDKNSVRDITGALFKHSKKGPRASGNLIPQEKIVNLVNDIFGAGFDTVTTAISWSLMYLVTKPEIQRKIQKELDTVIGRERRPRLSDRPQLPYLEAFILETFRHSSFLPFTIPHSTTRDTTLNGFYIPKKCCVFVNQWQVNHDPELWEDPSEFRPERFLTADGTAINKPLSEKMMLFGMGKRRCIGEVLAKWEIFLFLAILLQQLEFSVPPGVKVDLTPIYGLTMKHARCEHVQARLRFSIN
# Chain of UniProt P37231 (P37231 whole entry, looked up): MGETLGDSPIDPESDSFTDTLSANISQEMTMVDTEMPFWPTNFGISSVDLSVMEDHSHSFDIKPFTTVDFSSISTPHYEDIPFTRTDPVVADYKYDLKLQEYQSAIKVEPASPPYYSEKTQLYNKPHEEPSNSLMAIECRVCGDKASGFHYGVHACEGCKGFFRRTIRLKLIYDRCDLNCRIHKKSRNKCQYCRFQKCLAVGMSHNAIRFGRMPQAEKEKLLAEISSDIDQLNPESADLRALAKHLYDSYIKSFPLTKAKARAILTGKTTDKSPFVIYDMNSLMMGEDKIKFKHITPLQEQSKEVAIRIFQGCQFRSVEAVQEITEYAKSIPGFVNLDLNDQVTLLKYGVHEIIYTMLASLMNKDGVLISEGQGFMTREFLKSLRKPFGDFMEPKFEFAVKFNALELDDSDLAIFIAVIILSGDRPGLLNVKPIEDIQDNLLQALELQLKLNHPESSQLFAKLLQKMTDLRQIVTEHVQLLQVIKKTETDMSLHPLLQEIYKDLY
# Chain of UniProt P10635 (P10635 whole entry, looked up): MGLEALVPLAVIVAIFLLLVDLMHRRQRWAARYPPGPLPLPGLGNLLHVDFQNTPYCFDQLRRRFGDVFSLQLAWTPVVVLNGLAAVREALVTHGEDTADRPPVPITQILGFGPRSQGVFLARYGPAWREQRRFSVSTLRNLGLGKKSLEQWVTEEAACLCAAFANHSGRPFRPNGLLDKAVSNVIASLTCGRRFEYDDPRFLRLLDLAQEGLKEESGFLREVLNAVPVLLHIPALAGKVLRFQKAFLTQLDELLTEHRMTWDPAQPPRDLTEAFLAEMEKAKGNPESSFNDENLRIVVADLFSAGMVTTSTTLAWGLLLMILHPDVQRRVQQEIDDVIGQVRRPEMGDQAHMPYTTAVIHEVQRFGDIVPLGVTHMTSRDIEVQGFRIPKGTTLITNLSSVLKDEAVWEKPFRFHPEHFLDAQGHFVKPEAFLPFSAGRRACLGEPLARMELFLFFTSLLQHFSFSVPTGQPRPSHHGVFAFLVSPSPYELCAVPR
smiles,measurement,setting,value
CC1=CC(C)C(C=O)C(C)C1 (stereo not drawn),Potency,[1],inactive
same,Potency,[2]; [20],inactive
same,Potency,[3],inactive
same,Potency,[4],"inconclusive: 17.2 µM [cytotoxic, partial curve, poor fit]"
same,Potency,[5],inactive
same,Potency,[6],"inconclusive: 24.3 µM [rising, partial curve, poor fit]"
same,Potency,[7],"inconclusive: 50.2 µM [inhibitor, partial curve, poor fit]"
same,Potency,[8],inactive
CN1C(CCl)Nc2cc(Cl)c(S(N)(=O)=O)cc2S1(=O)=O (stereo not drawn),"ratio activity, negative = MMP loss",[2]; [20],inconclusive: 1.44%
same,Potency,[4],"inconclusive: 26.6 µM [cytotoxic, partial curve]"
same,Potency,[9],inactive
same,Potency,[10],inactive
same,Potency,[5],inactive
same,Potency,[11],inactive
same,Potency,[12],inactive
CCCNC(C)C(=O)Nc1c(C)csc1C(=O)OC (stereo not drawn),Potency,[4],"inconclusive: 12.7 µM [rising, partial curve, poor fit]"
same,Potency,[13],inactive
same,Potency,[14],inactive
same,Potency,[8],"inconclusive: 24.5 µM [inhibitor, partial curve]"
CCCc1cc(C(N)=S)ccn1,"activity change, negative = inhibition",[3],inconclusive: -0.016%
same,Potency,[6],inactive
same,Potency,[12],inconclusive: 15.5 µM [inhibitor]
O=C(O)COc1nn(Cc2ccccc2)c2ccccc12,Potency,[15],inactive
same,Potency,[7],"inconclusive: 30.9 µM [inhibitor, partial curve]"
NC(=O)c1ccc([N+](=O)[O-])cc1Cl,Potency,[1],"inactive and inconclusive: 243 nM [activator, single point]"
same,"ratio activity, negative = MMP loss",[2]; at 83.2 µM (top of the series),inactive: 16%
same,"ratio activity, negative = MMP loss",[2]; [20],inconclusive: 2.07%
same,Potency,[9],inactive
same,Potency,[10],"inconclusive: 54.9 µM [cytotoxic, single point]"
same,Potency,[14],inactive
same,Potency,[11],"inconclusive: 43.6 µM [inhibitor, single point]"
same,Potency,[12],"inconclusive: 79.6 µM [inhibitor, single point]"
same,Potency,[8],"inconclusive: 71 µM [inhibitor, partial curve] and inactive"
Nc1ccc(S(=O)(=O)Nc2ccnn2-c2ccccc2)cc1,Potency,[2]; [20],"inconclusive: 127 nM [rising, single point]"
same,Potency,[16],inactive
same,Potency,[17],inactive
Brc1cc(Br)cc(Br)c1,Potency,[5],inactive
same,Potency,[18],"inconclusive: 48.6 µM [inhibitor, partial curve, poor fit]"
same,Potency,[14],"inconclusive: 6.11 µM [cytotoxic, single point]"
same,Potency,[11],inactive
same,Potency,[8],"inconclusive: 71 µM [inhibitor, partial curve, poor fit]"
CC1=C(C(=O)O)N2C(=O)[C@@H](NC(=O)[C@H](N)c3ccccc3)[C@H]2SC1,"ratio activity, negative = MMP loss",[2]; [20],inconclusive: -17.3%
same,Potency,[15],inactive
same,"ratio activity, negative = inhibition",[9],inconclusive: 6.47%
same,Potency,[16],"inconclusive: 26.6 µM [rising, partial curve]"
same,Potency,[18],inactive
same,Potency,[13],"inconclusive: 37.6 µM [rising, single point]"
CN1C(=O)CC[C@H]1c1cccnc1,Potency,[4],"inconclusive: 29.8 µM [rising, partial curve, poor fit]"
same,"ratio activity, negative = inhibition",[9],inconclusive: 0.849%
same,activation,[16],inconclusive: -10.1%
same,Potency,[5],inactive
same,"activity change, negative = inhibition",[6],inconclusive: 5.74%
same,Potency,[14],inactive
same,Potency,[12],"inconclusive: 9.77 µM [inhibitor, single point]"
same,Potency,[8],"inconclusive: 34.3 µM [inhibitor, partial curve]"
OCC(O)[C@@H](O)[C@H](O)[C@H](O)CO[C@H]1O[C@H](CO)[C@@H](O)[C@H](O)[C@H]1O (stereo partly drawn),Potency,[1],inactive
same,"ratio activity, negative = MMP loss",[2]; [20],inconclusive: 3.61%
same,Potency,[15],inactive
same,"ratio activity, negative = inhibition",[9],inconclusive: -30.2%
same,Potency,[5],inactive
same,Potency,[18],inactive
same,Potency,[7],"inconclusive: 49.9 µM [inhibitor, partial curve, poor fit]"
same,Potency,[8],"inconclusive: 35.3 µM [inhibitor, partial curve]"
O=[Si]=O,Potency,[1],"inconclusive: 27.3 µM [rising, partial curve, poor fit]"
same,Potency,[5],"inconclusive: 1.79 µM [cytotoxic, single point]"
same,Potency,[13],inactive
OCCOc1ccc(OCCO)cc1,Potency,[2]; [20],active: 1560 nM
same,Potency,[3],inactive
same,Potency,[11],inactive
same,Potency,[8],"inconclusive: 40.7 µM [inhibitor, partial curve]"
CC1CNCC(C)O1 (stereo not drawn),Potency,[5],inactive
same,Potency,[19],inactive
same,Potency,[8],"inconclusive: 89.4 µM [inhibitor, partial curve, poor fit]"
